# According to PMC4336329 (PLoS ONE, 2015):
# About 2,200 (0.71%) of roughly 310,000 compounds showed an effect of 50% or more. The effect is printed as a negative number. This is one part of the list.
# Target: human ether-à-go-go-related gene (hERG) potassium channel (human, UniProt Q12809)
# Assay: primary screen, population patch clamp on CHO cells stably expressing hERG
# Sequence of human ether-à-go-go-related gene (hERG) potassium channel (Q12809 whole entry, looked up): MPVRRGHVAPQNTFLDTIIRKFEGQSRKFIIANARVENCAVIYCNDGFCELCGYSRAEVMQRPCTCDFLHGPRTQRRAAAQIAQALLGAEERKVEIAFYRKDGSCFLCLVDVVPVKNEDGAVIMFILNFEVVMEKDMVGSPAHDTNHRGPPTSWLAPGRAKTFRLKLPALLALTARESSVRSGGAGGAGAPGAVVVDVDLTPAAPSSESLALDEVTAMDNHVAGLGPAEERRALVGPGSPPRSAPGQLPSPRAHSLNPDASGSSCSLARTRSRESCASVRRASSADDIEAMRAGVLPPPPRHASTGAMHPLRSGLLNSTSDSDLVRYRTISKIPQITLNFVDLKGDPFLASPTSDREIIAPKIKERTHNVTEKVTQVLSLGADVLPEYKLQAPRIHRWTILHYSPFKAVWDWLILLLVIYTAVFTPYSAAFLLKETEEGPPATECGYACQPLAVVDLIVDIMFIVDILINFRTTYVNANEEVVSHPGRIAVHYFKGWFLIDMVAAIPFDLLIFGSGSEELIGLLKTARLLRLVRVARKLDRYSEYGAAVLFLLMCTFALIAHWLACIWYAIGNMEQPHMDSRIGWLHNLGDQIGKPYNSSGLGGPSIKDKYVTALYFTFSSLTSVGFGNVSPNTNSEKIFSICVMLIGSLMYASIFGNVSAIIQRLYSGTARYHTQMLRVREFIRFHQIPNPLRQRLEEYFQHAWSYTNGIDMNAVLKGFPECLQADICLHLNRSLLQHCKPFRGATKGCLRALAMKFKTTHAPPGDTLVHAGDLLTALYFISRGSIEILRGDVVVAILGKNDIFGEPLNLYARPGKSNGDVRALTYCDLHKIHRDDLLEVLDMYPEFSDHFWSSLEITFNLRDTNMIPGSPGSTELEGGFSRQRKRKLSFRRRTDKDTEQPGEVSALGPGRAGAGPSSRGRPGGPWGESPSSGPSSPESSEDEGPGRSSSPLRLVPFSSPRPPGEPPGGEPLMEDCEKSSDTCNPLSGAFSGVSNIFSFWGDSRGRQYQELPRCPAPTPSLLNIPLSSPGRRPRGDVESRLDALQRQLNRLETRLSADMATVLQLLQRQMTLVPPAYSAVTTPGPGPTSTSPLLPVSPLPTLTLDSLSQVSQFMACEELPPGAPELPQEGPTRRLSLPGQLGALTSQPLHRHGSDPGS
row,SMILES,"hERG current change (%, negative = inhibition) at 1uM [%]"
1,CCOc1cccc(-c2c(C(=O)N/N=C(\C)c3cccs3)nnn2-c2nonc2N)c1,8.25
2,CCOc1ccc(S(=O)(=O)N2CCCC(C(=O)NCc3cccnc3)C2)cc1C (stereo not shown),7.59
3,COc1ccc(/C=C(\NC(=O)c2ccc(C)cc2)C(=O)NCCN2CCOCC2)cc1,-33.3
4,Cn1ncc(C#N)c1NC(=O)c1cc(-c2ccccc2Cl)on1,9.4
5,CCOC(=O)c1c(C)[nH]c(C)c1S(=O)(=O)NC(C)Cc1ccco1 (stereo not shown),26.8
6,CCCCNS(=O)(=O)c1ccc(S(=O)(=O)n2cnc3ccccc32)cc1,18
7,CC(C)(C)OC(=O)NCCCC[C@H](NC(=O)c1[nH]cnc1C(=O)N[C@@H](Cc1ccccc1)C(=O)OC(C)(C)C)C(=O)OC(C)(C)C,2.34
8,CCSc1nnc(NC(=O)C2Cc3ccccc3CN2C(=O)c2ccco2)s1 (stereo not shown),10.8
9,Cc1ccc(S(=O)(=O)Nc2cc3c4c(c2)CCN4C(=O)CC3)cc1,7.2
10,CCc1cccc(OCC(=O)Nc2ccc(S(=O)(=O)N3CCCC3)cc2)c1,4.83
11,Cc1nn(-c2ccccc2)c2nc(N)c(C#N)c(-c3ccc(O)c(O)c3)c12,11.3
12,CCOC(=O)c1ccc(NC(=O)C2C3CCC(C3)C2C(=O)O)cc1 (stereo not shown),13.5
13,CCOC(=O)/C=C/[C@H]1CCc2cccc(C)c2O1,14.4
14,Cc1cc(C)n(S(=O)(=O)c2ccccc2[N+](=O)[O-])n1,15.3
15,COCCn1c(C)cc(C(=O)COC(=O)c2ccc(-n3nc(C)cc3C)cc2)c1C,12.6
16,COc1ccc(S(=O)(=O)CC(=O)Nc2ccccc2Cl)cc1,13.3
17,C=C(C)CSc1nnc2n(C)c(=O)c3c4c(sc3n12)CCC4,11
18,CN(CC(=O)NC1CCCCCC1)S(=O)(=O)c1ccc2c(c1)n(C)c(=O)c(=O)n2C,10.7
19,Cc1c(C(=O)NCc2ccco2)sc2nc(-c3ccccc3)cn12,1.11
20,N#CC(C#N)=C1C(=O)N(CCN2CCCCC2)c2ccccc21,3.75
21,CCc1ccccc1N=C1S/C(=C/c2ccccc2OCC(=O)N2CCOCC2)C(=O)N1C,3.66
22,O=c1c2ccccc2c(=O)n(-c2ccccc2)n1CCCCBr,9.19

row,SMILES,"hERG current change (%, negative = inhibition) at 1uM [%]"
1,CCOC(=O)C(CCCOc1ccccc1C)C(=O)OCC,11.2
2,Cc1cc(OCC(=O)NCCO)ccc1Cl,11.2
3,CCCCc1nnc(NC(=O)C23CC4CC(CC(NC(C)=O)(C4)C2)C3)s1,6.61
4,COc1ccccc1C1N(c2ccc(Cl)cc2)C(=O)C2CCCN21 (stereo not shown),19.1
5,Cl.N=c1n(Cc2ccc(Cl)cc2)c2ccccc2n1CC(O)COc1ccccc1 (stereo not shown),-17.1
6,N#CC(C(=O)NC1CC1)c1nc2ccccc2nc1N1CCCC1 (stereo not shown),-4.38
7,O=C(O)C1CCC(=O)N1C1CCCC1 (stereo not shown),11
8,CCOC(=O)CCC(NC(=O)CCC(=O)NC(CCC(=O)OCC)C(=O)OCC)C(=O)OCC (stereo not shown),16.1
9,CS(=O)(=O)NN1C(=O)c2ccccc2NC1c1c[nH]c2ccccc12 (stereo not shown),8.81
10,Cc1c(Cl)cccc1NC(=O)CCC(=O)N/N=C/c1ccco1,23.6
11,COc1ccccc1NC(=O)C1CC(=O)OC1c1ccccc1 (stereo not shown),4.27
12,COc1cc(OC)cc(C2(C#N)CCN(C)CC2)c1,3.75
13,Cc1onc(-c2ccccc2)c1C(=O)OCC(=O)N(CC(C)C)c1c(N)n(Cc2ccccc2)c(=O)[nH]c1=O,10.2
14,COc1ccc(CNC(=O)CSc2ccc(Br)cc2)cc1OC,-39.7
15,CC1CCCCN1C(=O)c1ccccc1OC1CCN(S(C)(=O)=O)CC1 (stereo not shown),15.1
16,COc1ccc(CCn2c(=N)c(S(=O)(=O)c3ccc(Cl)cc3)cc3c(=O)n4ccccc4nc32)cc1,13.5
17,CCN(CC)c1ccc(NC(=O)CN2CCN(c3ccccn3)CC2)cc1,4.56
18,CN(Cc1ccon1)C(=O)CCc1nnc(Cc2ccc(-c3ccccc3)cc2)o1,3.12
19,COc1cc2c(cc1OC)[C@@]13CCN4CC5=CCO[C@H]6CC(=O)N2[C@H]1[C@H]6[C@H]5C[C@H]43,6.04
20,Cc1ccc(NC2CCCCC2NS(=O)(=O)c2ccc(Cl)cc2)cc1 (stereo not shown),2.95
21,CCCCNC(=O)c1c(N)n(/N=C/c2ccccn2)c2nc3ccccc3nc12,4.47
22,O=C(c1ccc(F)cc1)c1ccc(N2CCCC2)cc1,-7.39

row,SMILES,"hERG current change (%, negative = inhibition) at 1uM [%]"
1,CC(C)C(C(=O)Nc1ccccc1)N1C(=O)c2ccccc2C1=O (stereo not shown),8.99
2,COc1ccccc1OCC(=O)NC1CC(C)(C)NC(C)(C)C1,11.2
3,Cc1ccccc1CN1CCC(CNC(=O)C2CCCN(c3ncnc4c3nc3n4CCCCC3)C2)CC1 (stereo not shown),2.84
4,COc1ccc(C(=O)NCC(=O)OCC(=O)N2CCN(S(=O)(=O)c3ccccc3)CC2)cc1,20.8
5,NCC(CC(=O)O)C1CCCCC1 (stereo not shown),9.81
6,COc1ccc(NC(=O)c2ccco2)c2ccccc12,3.98
7,O=C(Cc1n[nH]c(=O)[nH]c1=O)N/N=C/c1ccccc1O,14.3
8,O=C(COC(=O)c1cc(S(=O)(=O)N2CCCCC2)ccc1N1CCOCC1)NC1CCS(=O)(=O)C1 (stereo not shown),9.54
9,C(=C\c1ccccc1)/CSc1nnc(-c2ccccc2)n1Cc1ccco1,-45.4
10,O=C(OCCOCCN=C1NS(=O)(=O)c2ccccc21)c1ccc(F)cc1,14.5
11,CCOC(=O)/C(C#N)=C/c1cn(CCC(=O)O)nc1-c1ccc(Cl)cc1,12.4
12,COc1cccc(C(=O)Nc2cccc(C(=O)N3CCOCC3)c2)c1,13
13,Cc1c(NC(=O)C(C)OC(=O)CC2CC3CCC2C3)c(=O)n(-c2ccccc2)n1C (stereo not shown),7.13
14,O=C(COC(=O)c1cccc(Cl)c1Cl)NC1CCCC1,10.2
15,O=C(CN1CCN(c2ccc([N+](=O)[O-])cc2)CC1)Nc1nccs1,-29.3
16,COc1cc(/C=C/C(=O)OCC(=O)NCc2ccco2)ccc1O,8.92
17,c1ccc2c(c1)nnn2-c1ncnc2sc3c(c12)CCCC3,-8.52
18,COc1ccc(OC)c(NC(=O)c2c(NC(=O)CNCc3ccco3)sc3c2CCC3)c1,10.5
19,Cc1ccc(CNc2nc3c([nH]2)c(=O)n(C)c(=O)n3C)cc1,5.14
20,COc1cc(CCC(=O)OCC(=O)NCc2ccccc2)cc(OC)c1OC,14.8
21,COC(=O)c1sc2ccccc2c1NC(=O)c1ccc(S(=O)(=O)N2CCC(C)CC2)cc1,-1.89
22,CCOC(=O)C1CCN(C(=O)c2ccc(N(C)S(=O)(=O)c3ccc(OC)cc3)cc2)CC1,-6.69

row,SMILES,"hERG current change (%, negative = inhibition) at 1uM [%]"
1,O=P(C(c1c[nH]c2ccccc12)N1CCOCC1)(N1CCOCC1)N1CCOCC1 (stereo not shown),-5.85
2,C=CCN(CC=C)CCOc1cccc(Oc2ccccc2)c1.O=C(O)C(=O)O,8.77
3,CCOc1ccccc1N1CCN(C(=O)Nc2ccc(F)c(Cl)c2)CC1,3.05
4,CCc1nn(C(C)C(=O)NCCc2ccccc2)c(=O)c2cc3occc3n12 (stereo not shown),-12.5
5,O=C(Cn1cnc([N+](=O)[O-])n1)N/N=C/c1cc(Cl)ccc1O,15.3
6,O=C(NCCc1ccc(Cl)cc1)c1ccc(S(=O)(=O)N2CCCC2)cc1,13
7,CC(C)(C)C(=O)Cn1nc(Cl)nc1Cl,2.97
8,COc1ccc(-c2cc(C3CCN(C(=O)OC(C)(C)C)CC3)[nH]n2)cc1,-10.2
9,COc1ccc(N2CCN(c3oc(COc4ccc(Cl)cc4)nc3C#N)CC2)cc1,11.6
10,COc1cc(C(=O)NCC(C)C)cc(OC)c1OC,2.16
11,C#CCOCCOCCOCCNc1nc(N2CCN(C(=O)[C@H](CCCCN)n3cc([C@@H](N)CO)nn3)CC2)nc(N2CCN(C(=O)[C@H](Cc3ccc(O)cc3)n3cc([C@@H](N)CC(C)C)nn3)CC2)n1.Cl,7.71
12,CCOC(=O)CC(=O)CSc1ccc2nnc(-c3ccc(F)cc3)n2n1,-6.85
13,COc1cc(Cl)ccc1OCc1cc(C(=O)N2C[C@@H]3CCC[C@H]2C3)no1,-1.75
14,COc1ccc(OC)c(C2=NS(=O)(=O)N(C)C(C(=O)Nc3cccc(C(C)=O)c3)=C2)c1,10.7
15,COc1ccc(CCN2C(=O)C3C4CCC(C4=C(C)C)C3C2=O)cc1OC (stereo not shown),20.4
16,COc1ccc(/C=C(\NC(=O)c2ccc(C)cc2)C(=O)NCC2CCCO2)cc1 (stereo not shown),7.69
17,COc1cccc(CC(=O)OCC(=O)NC(Cc2ccccc2)C(C)=O)c1 (stereo not shown),10.5
18,O=C(Nc1cccc(O)c1)c1cc(-c2ccc3c(c2)OCO3)on1,10.5
19,O=C(Cc1ccc(-n2cccc2)cc1)NC1CCCCCC1,-0.777
